Several values for one entry are separate records, joined by “and”; a condition that tells them apart may be missing. Equal values may be shown once. Read-outs that look alike come from different tables or passages of the source.
Experiments:
PMCA-2 model = settings: for Days until sacrifice (mean) / Mucin (g), mean (SD): PMCA-2; for Tumor growth/total number of animals / mean growth index: ip
[1] = single i.p. dose, PMCA-2 model, data not shown
PMCA-3 model = settings: for Days until sacrifice (mean) / Mucin (g), mean (SD): day 1; for Tumor growth/total number of animals: mouse, in vivo, ip
PMP-1 model = experiment: In vivo tumor growth, orthotopic PMP-1 model, single i.p. injection; settings: day 1
PMCA-1 model = experiment: In vivo tumor growth, orthotopic PMCA-1 model, single i.p. injection; settings: day 1
PMP-2 model = experiment: In vivo tumor growth, orthotopic PMP-2 model, single injection; settings: day 1
[2] = single i.p. dose 5 mg/kg, day 1
[3] = single i.p. dose 10 mg/kg, Day 6
[4] = single i.p. dose 10 mg/kg, day 1
[5] = PMCA-3, single i.p. dose 10 mg/kg
[6] = single i.p. dose 2.5 mg/kg, day 1
[7] = single i.p. dose 5 mg/kg, Day 6
[8] = PMCA-3, single i.p. dose 2.5 mg/kg
[9] = PMCA-3, single i.p. dose 5 mg/kg

O=C1[O][Pt]2([NH][C@@H]3CCCC[C@H]3[NH]2)[O]C1=O [Oxaliplatin, oxaliplatin]
Days until sacrifice (mean) (PMCA-2 model; [2]): 44 days | Mucin (g), mean (SD) (PMCA-2 model; [2]): 4.9 (0.8) g | Days until sacrifice (mean) (PMCA-2 model; [3]): 74 days | Mucin (g), mean (SD) (PMCA-2 model; [3]): 5.8 (1.6) g | Days until sacrifice (mean) (PMCA-2 model; [4]): 76 days | Mucin (g), mean (SD) (PMCA-2 model; [4]): 4.5 (1.4) g | Tumor growth/total number of animals (PMCA-2 model; mouse, in vivo, 5 mg/kg): 6/6 | mean growth index (PMCA-2 model; mouse, in vivo, 5 mg/kg): equal to that of untreated animals | Tumor growth/total number of animals (PMCA-2 model; mouse, in vivo, 10 mg/kg): 10/10 and 4/4 | mean growth index (PMCA-2 model; mouse, in vivo, 10 mg/kg): 7.0 | highest tolerated dose [1]: 10 mg/kg | Days until sacrifice (mean) (PMCA-3 model; [5]): 63 days | Mucin (g), mean (SD) (PMCA-3 model; [5]): 5.3 (1.2) g | Tumor growth/total number of animals (PMCA-3 model; 10 mg/kg): 6/6 | Days until sacrifice (mean) (PMP-1 model; single i.p. dose 10 mg/kg): 68 days | Mucin (g), mean (SD) (PMP-1 model; single i.p. dose 10 mg/kg): 4.7 (0.7) g | Tumor growth/total number of animals (PMP-1 model; single i.p. dose 10 mg/kg): 6/6 | Days until sacrifice (mean) (PMCA-1 model; single i.p. dose 10 mg/kg): 68 days | Mucin (g), mean (SD) (PMCA-1 model; single i.p. dose 10 mg/kg): 4.7 (2.4) g | Tumor growth/total number of animals (PMCA-1 model; single i.p. dose 10 mg/kg): 6/6 | Days until sacrifice (mean) (PMP-2 model; single i.p. dose 10 mg/kg): 74 days | Mucin (g), mean (SD) (PMP-2 model; single i.p. dose 10 mg/kg): 4.3 (2.3) g | Tumor growth/total number of animals (PMP-2 model; single i.p. dose 10 mg/kg): 5/6

CO[C@@]12[C@H](COC(N)=O)C3=C(C(=O)C(C)=C(N)C3=O)N1C[C@@H]1N[C@@H]12 [Mitomycin C, mitomycin C]
Days until sacrifice (mean) (PMCA-2 model; [6]): 106 days | Mucin (g), mean (SD) (PMCA-2 model; [6]): 1 (0.6) g | Days until sacrifice (mean) (PMCA-2 model; [7]): 106 days | Mucin (g), mean (SD) (PMCA-2 model; [7]): 0.1 (0.3) g | Days until sacrifice (mean) (PMCA-2 model; [2]): 103 days | Mucin (g), mean (SD) (PMCA-2 model; [2]): 0.02 (0.1) g | tumor growth (PMCA-2 model; mouse, in vivo): inhibited tumor growth, but clearly less effectively than the higher doses | Tumor growth/total number of animals (PMCA-2 model; mouse, in vivo, 2.5 mg/kg): 1/3 | Tumor growth/total number of animals (PMCA-2 model; mouse, in vivo, 5 mg/kg): 1/11 and 1/5 | efficacy, comparison of doses (PMCA-3 model; PMCA-3, 5 mg/kg vs 2.5 mg/kg i.p.): 5 mg/kg was more efficacious than 2.5 mg/kg | Days until sacrifice (mean) (PMCA-3 model; [8]): 102 days | Mucin (g), mean (SD) (PMCA-3 model; [8]): 1.2 (2.4) g | Days until sacrifice (mean) (PMCA-3 model; [9]): 112 days | Mucin (g), mean (SD) (PMCA-3 model; [9]): 0 g | Tumor growth/total number of animals (PMCA-3 model; 2.5 mg/kg): 4/6 | Tumor growth/total number of animals (PMCA-3 model; 5 mg/kg): 0/5 | Days until sacrifice (mean) (PMP-1 model; single i.p. dose 2.5 mg/kg): 110 days | Mucin (g), mean (SD) (PMP-1 model; single i.p. dose 2.5 mg/kg): 0 g | Tumor growth/total number of animals (PMP-1 model; single i.p. dose 2.5 mg/kg): 0/6 | Days until sacrifice (mean) (PMP-1 model; single i.p. dose 5 mg/kg): 100 days | Mucin (g), mean (SD) (PMP-1 model; single i.p. dose 5 mg/kg): 1.0 (2.3) g | Tumor growth/total number of animals (PMP-1 model; single i.p. dose 5 mg/kg): 1/6 | Days until sacrifice (mean) (PMCA-1 model; single i.p. dose 2.5 mg/kg): 94 days | Mucin (g), mean (SD) (PMCA-1 model; single i.p. dose 2.5 mg/kg): 1.5 (2.3) g | Tumor growth/total number of animals (PMCA-1 model; single i.p. dose 2.5 mg/kg): 3/6 | Days until sacrifice (mean) (PMCA-1 model; single i.p. dose 5 mg/kg): 98 days | Mucin (g), mean (SD) (PMCA-1 model; single i.p. dose 5 mg/kg): 1 (2.6) g | Tumor growth/total number of animals (PMCA-1 model; single i.p. dose 5 mg/kg): 1/6 | Days until sacrifice (mean) (PMP-2 model; single i.p. dose 2.5 mg/kg): 111 days | Mucin (g), mean (SD) (PMP-2 model; single i.p. dose 2.5 mg/kg): 0.7 (0.4) g | Tumor growth/total number of animals (PMP-2 model; single i.p. dose 2.5 mg/kg): 0/6 | Days until sacrifice (mean) (PMP-2 model; single i.p. dose 5 mg/kg): 111 days | Mucin (g), mean (SD) (PMP-2 model; single i.p. dose 5 mg/kg): 0.5 (0.7) g | Tumor growth/total number of animals (PMP-2 model; single i.p. dose 5 mg/kg): 0/6

From US20140248292A1, “COMPOSITIONS AND METHODS FOR TREATING CANCER” (priority 2013, published 2014)
